Reference: PubChem BioAssay AID485344 (National Center for Advancing Translational Sciences (NCATS), 2010)
Screen size: about 340,000 compounds; about 6,900 (2%) were called active. Cut-off read from the data, not from the text of the source: active = inhibition above about 30%; inactive = below that, where a call was filed. This is a selection; strong and weak results do not stand in their true shares. Where no call is shown, the source filed none.

Molecular target: D(2) dopamine receptor (Homo sapiens) (UniProt P14416)
UniProt P14416, sequence (P14416 whole entry, looked up): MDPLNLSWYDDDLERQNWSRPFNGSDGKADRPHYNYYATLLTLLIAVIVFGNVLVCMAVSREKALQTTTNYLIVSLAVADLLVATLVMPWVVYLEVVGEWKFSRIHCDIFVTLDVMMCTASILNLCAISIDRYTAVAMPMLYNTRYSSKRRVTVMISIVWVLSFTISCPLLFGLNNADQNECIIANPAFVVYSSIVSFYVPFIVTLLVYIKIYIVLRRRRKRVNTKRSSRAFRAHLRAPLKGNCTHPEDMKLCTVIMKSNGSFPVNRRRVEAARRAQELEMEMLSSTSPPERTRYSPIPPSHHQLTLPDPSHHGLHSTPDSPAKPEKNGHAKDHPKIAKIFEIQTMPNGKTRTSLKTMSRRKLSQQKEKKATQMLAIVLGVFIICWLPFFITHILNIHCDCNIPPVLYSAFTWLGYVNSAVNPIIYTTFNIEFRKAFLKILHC
Assay: HTS Assay for Allosteric Antagonists of the Human D2 Dopamine Receptor: Primary Screen for Antagonists; note: 0% is about no effect
Details: HEK293 TREx D2 cells, calcium flux, dopamine EC80; at 10 µM; stronger effect = higher value
In short: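 Overnight-induced (tetracycline, 30 C) HEK293 T-REx cells carrying force-coupled D2 receive a no-wash calcium dye, then compound, then EC80 dopamine at 180 s; signals are read kinetically throughout.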

Compound | inhibition
COCc1cc(C)nc2sc3c(c12)NC(c1ccccc1C(=O)O)N(c1cccc(C(F)(F)F)c1)C3=O (configuration not stated) | -3.28%
O=C(CSc1nnc2[nH]c(=O)cc(-c3ccccc3)n12)Nc1ccc(OC(F)(F)F)cc1 | -17.4%
Cc1csc2nc(COC(=O)c3cccc(NC(=O)COc4ccccc4Cl)c3)cc(=O)n12 | 16.7%
OC(CCCN1CCCCC1)(c1ccccc1)c1ccccc1 | active: 80.1%
COCCCNC(=O)c1nn(C)c2c1CS(=O)(=O)c1ccccc1-2 | 13.2%
CCc1cccc(NC(=O)Cc2nc(-c3ccc(OC)cc3)no2)c1 | -9.17%
Cc1ccc(CNC(=O)CCSCc2cnn(-c3ccccc3)c2-n2cccc2)cc1 | 12.6%
COc1ccc(NCc2cccn2-c2nnc(N3CCOCC3)s2)cc1OC | 10.2%
COc1ccc(CNC(=O)Cn2ncc3c(=O)oc4ccccc4c32)c(OC)c1 | -9.76%
CCCc1nc2ccccc2c(C(=O)OCc2nnc(-c3cc(OC)c(OC)c(OC)c3)o2)c1CC | active: 38%
CCCCNC(=O)c1cc(-c2cccnc2)nc2ccc(S(=O)(=O)NCCCC)cc12 | -6.5%
CC(C)Oc1ccc(S(=O)(=O)N2CCOCC2)cc1NC(=O)Cc1c(F)cccc1Cl | active: 30.7%
Cc1ccc(C)c(N2CCN(C(=O)CCS(=O)(=O)c3ccc4c(c3)oc(=O)n4C)CC2)c1 | 6.6%
Cc1ccc(NC(=O)CN2C(=O)C(c3ccc(C)cc3)=NC23CCCCCC3)cc1 | -7.36%
Cc1ccc(C(=O)N2CCN(Cc3ccc4c(c3)OCO4)CC2)c(Cl)c1 | active: 72.6%
CCc1ccc(NC(=O)c2cccc(N3CCCS3(=O)=O)c2)cc1 | 4.73%
COc1ccc2c(c1)c(=O)c(S(=O)(=O)c1ccc(Cl)cc1)cn2Cc1cc(C)ccc1C | -12.9%
CCN(CC)C(=O)c1sc2c(c1C)c(=O)n(CCc1ccccc1)c(=O)n2Cc1ccc(C)cc1 | 11%
CC(=O)c1c(C)n(S(=O)(=O)c2ccc(Cl)cc2)c2ccc(NS(=O)(=O)c3ccc(Cl)cc3)cc12 | 22.3%
Cc1cc(C)cc(NC(=O)Cn2nc(N3CCN(c4ccccc4)CC3)ccc2=O)c1 | -5.34%
CC(C)c1ccc(OCC(=O)Nc2cc(-c3ccccc3)no2)cc1 | 15%
COC(=O)c1nn(-c2cccc(C)c2)c2nnc(Cc3ccccc3)c(=O)n12 | active: 63.1%
COc1ccc(S(=O)(=O)NCCc2sc(-c3cccnc3)nc2C)cc1OC | 4.47%
COc1cc(CN(C(=O)c2ccccc2Br)c2ccccn2)cc(OC)c1OC | -8.73%

Compound | inhibition
COc1ccc(CC(C)N2CCN(c3cccc(C(F)(F)F)c3)CC2)cc1OC (configuration not stated) | active: 74.3%
Cc1ccc(-n2cnc3cc(C(=O)NC4CCCCCC4)ccc32)c(C)c1 | -3.96%
CCOc1ccc(NC(=O)C2CCC(CNc3c(N4CCC(C)CC4)c(=O)c3=O)CC2)cc1 (configuration not stated) | active: 30.5%
COc1ccc(C)cc1NC(=O)C1CCC(CNS(=O)(=O)c2ccc3c(c2)CCCC(=O)N3)CC1 (configuration not stated) | 13.7%
CCc1ccc(Cn2nnc3c(=O)[nH]c(C4CCCN(C(=O)c5cccc(Cl)c5)C4)nc32)cc1 (configuration not stated) | -12.1%
O=C(Nc1ccc(F)cc1)c1ccc(CN2CC(=O)N3CCCCC3C2=O)cc1 (configuration not stated) | 13.4%
CCc1ccccc1NC(=O)c1nn(-c2ccc(C)cc2)c(=O)c2c1c1ccccc1n2C | 6.51%
CCS(=O)(=O)n1nc(-c2ccco2)nc1NCc1ccc(C(C)C)cc1 | -6.58%
CC(C)c1cc(C(=O)NCc2ccc(F)cc2)no1 | -6.58%
Cc1ccc(S(=O)(=O)N(CC(O)CN2CCCCC2)c2cccc([N+](=O)[O-])c2)cc1 (configuration not stated) | active: 35.8%
CC(=O)Nc1ccc(NC(=O)C(NC(=O)C2CCC(C)CC2)C(C)C)cc1 (configuration not stated) | 9.58%
COc1cccc(OC)c1OCCCN1CCC(Cc2ccccc2)CC1 | active: 88.8%
CCOC(=O)N1CCN(Cc2nc3cc(NC(=O)c4ccc(F)cc4)ccc3n2C(C)C)CC1 | -10.4%
COc1ccc(-c2cn3c(n2)sc2cc(C(=O)NCC(C)c4ccccc4)ccc23)cc1 (configuration not stated) | 23.5%
Cc1c(Cl)cccc1NC(=O)Nc1nnc(N(C)C2CCCCC2)s1 | 4.7%
CCCCCCNC(=O)CCc1c(C)nc2nc(-c3cc(OC)cc(OC)c3)nn2c1C | -6.82%
Cc1ccc(C(=O)c2cn(Cc3cc(C)ccc3C)c3nc(C)ccc3c2=O)cc1 | -11.9%
CN(C1CCCCC1)S(=O)(=O)c1ccc2c(c1)c(=O)c(C(=O)N1CCN(c3ccc(F)cc3)CC1)cn2C | 3.11%
CCOCCCNC(=O)C(NC(=O)C1CCC(C)CC1)C(C)C (configuration not stated) | -2.45%
CC(=O)c1cccc(NC(=O)CCS(=O)(=O)c2ccc3c(c2)n(C)c(=O)c(=O)n3C)c1 | -1.04%
NC(=O)CSc1nc2cc3c(cc2c(=O)n1CCCCCC(=O)NCc1ccc2c(c1)OCO2)OCO3 | 5.62%
COc1ccc(OC)c(NC(=O)CSc2c3c(nc4cc(Cl)ccc24)CCCC3)c1 | 4.45%
Clc1ccc(OCCSc2nnnn2C2CCCCC2)cc1 | active: 34.4%
